Results reported in the CheMixHub viscosity set.
The source gives many values for each of these; only a part stands here.

Assay: xn = mol fraction of the nth substance listed
Settings: 101 kPa

CC(C)(C)O + O
Settings | viscosity [mPa·s]
308 K, x1 = 0.97 | 2.592
308 K, x1 = 0.98 | 2.597
308 K, x2 = 0.01 | 2.601
308.15 K, x1 = 0.098 | 2.148
308.15 K, x1 = 0.1 | 2.132
308.15 K, x1 = 0.2001 | 2.903
308.15 K, x1 = 0.217 | 2.964
308.15 K, x1 = 0.3 | 3.186
308.15 K, x1 = 0.301 | 3.21
308.15 K, x1 = 0.3997 | 3.221
308.15 K, x1 = 0.445 | 3.185
308.15 K, x1 = 0.5 | 3.112
308.15 K, x1 = 0.5001 | 3.136
308.15 K, x1 = 0.592 | 2.955
308.15 K, x1 = 0.5989 | 3.014
308.15 K, x1 = 0.694 | 2.841
308.15 K, x1 = 0.6995 | 2.881
308.15 K, x1 = 0.79 | 2.705
308.15 K, x1 = 0.7978 | 2.763
308.15 K, x1 = 0.8976 | 2.682
308.15 K, x1 = 0.905 | 2.633
313.15 K, x1 = 0.098 | 1.835
313.15 K, x1 = 0.1 | 1.79
313.15 K, x1 = 0.2001 | 2.392
313.15 K, x1 = 0.217 | 2.478
313.15 K, x1 = 0.3 | 2.587
313.15 K, x1 = 0.301 | 2.566
313.15 K, x1 = 0.3997 | 2.633
313.15 K, x1 = 0.445 | 2.626
313.15 K, x1 = 0.5 | 2.568
313.15 K, x1 = 0.5001 | 2.562
313.15 K, x1 = 0.592 | 2.431
313.15 K, x1 = 0.5989 | 2.459
313.15 K, x1 = 0.6 | 2.409
313.15 K, x1 = 0.694 | 2.327
313.15 K, x1 = 0.6995 | 2.346
313.15 K, x1 = 0.7 | 2.29
313.15 K, x1 = 0.79 | 2.215
313.15 K, x1 = 0.7978 | 2.247
313.15 K, x1 = 0.8 | 2.188
313.15 K, x1 = 0.8976 | 2.168
313.15 K, x1 = 0.9 | 2.12
313.15 K, x1 = 0.905 | 2.141
313.15 K, x1 = 0.95 | 2.087
318 K, x1 = 0.001 | 0.606
318 K, x1 = 0.005 | 0.644
318 K, x1 = 0.01 | 0.711
318 K, x1 = 0.02 | 0.804
318 K, x1 = 0.03 | 0.916
318 K, x1 = 0.04 | 1.038
318 K, x1 = 0.05 | 1.153
318 K, x1 = 0.06 | 1.234
318 K, x1 = 0.08 | 1.43
318 K, x1 = 0.1 | 1.602
318 K, x1 = 0.15 | 1.935
318 K, x1 = 0.2 | 2.091
318 K, x1 = 0.25 | 2.19
318 K, x1 = 0.3 | 2.235
318 K, x1 = 0.35 | 2.233
318 K, x1 = 0.4 | 2.224
318 K, x1 = 0.5 | 2.139
318 K, x1 = 0.6 | 2.032
318 K, x1 = 0.7 | 1.926
318 K, x1 = 0.8 | 1.832
318 K, x1 = 0.85 | 1.803
318 K, x1 = 0.88 | 1.771
318 K, x1 = 0.9 | 1.758
318 K, x1 = 0.92 | 1.747
318 K, x1 = 0.95 | 1.728
318 K, x1 = 0.97 | 1.719
318 K, x1 = 0.98 | 1.71
318 K, x2 = 0.01 | 1.706
318.15 K, x1 = 0.098 | 1.57
318.15 K, x1 = 0.1 | 1.528
318.15 K, x1 = 0.2001 | 2
318.15 K, x1 = 0.217 | 2.1
318.15 K, x1 = 0.3 | 2.185
318.15 K, x1 = 0.301 | 2.259
318.15 K, x1 = 0.3997 | 2.185
318.15 K, x1 = 0.445 | 2.204
318.15 K, x1 = 0.5 | 2.156
318.15 K, x1 = 0.5001 | 2.121
318.15 K, x1 = 0.592 | 2.034
318.15 K, x1 = 0.5989 | 2.03
318.15 K, x1 = 0.694 | 1.929
318.15 K, x1 = 0.6995 | 1.937
318.15 K, x1 = 0.79 | 1.834
318.15 K, x1 = 0.7978 | 1.848
318.15 K, x1 = 0.8976 | 1.777
318.15 K, x1 = 0.905 | 1.777
323.15 K, x1 = 0.098 | 1.364
323.15 K, x1 = 0.217 | 1.796
323.15 K, x1 = 0.301 | 1.927
323.15 K, x1 = 0.445 | 1.856
323.15 K, x1 = 0.5 | 1.813
323.15 K, x1 = 0.592 | 1.713
323.15 K, x1 = 0.694 | 1.623
323.15 K, x1 = 0.79 | 1.54
323.15 K, x1 = 0.905 | 1.482
